Some of the results follow. The data describe in vitro nicking of single-stranded DNA by Rep domains for 1 h at 37 °C with 3 µM enzyme; only the middle of the 90-letter strands is printed. Values are log2 of uncut reads against the no-enzyme pool; uncut sequences lie near 0, cut ones below; no hit call is given. Reads are scaled to the total, so uncut sequences can rise above 0 when many others are cut.
Legend:
Test in all cases: uncleaved DNA left, log2 of reads against the no-enzyme library (log2 ratio); higher = less cleavage (more negative = more Rep cleavage of the k-mer); sequences stand for … in CTCGTCCG…ACCGGAGA
[1] = test system: T1, Rep nickase domain of Muscovy duck circovirus
T1 sequence (residues 1-111, tag not shown): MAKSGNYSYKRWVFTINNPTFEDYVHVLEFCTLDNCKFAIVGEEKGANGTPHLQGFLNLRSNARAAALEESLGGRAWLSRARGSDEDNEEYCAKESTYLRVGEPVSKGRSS
Protocol: (§1)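 A pool of 90-nt single-stranded DNAs with seven random bases just before the constant AC of the nick site (name = the seven bases) was cut by 3 µM recombinant His6-SUMO-tagged Rep nickase domain (300 nM DNA, 50 mM HEPES pH 8.0, 50 mM NaCl, 1 mM MnCl2, 1 h, 37 °C, three replicates). Uncut DNA was amplified and sequenced.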

[2] = test system: T2, Rep nickase domain of banana bunchy top virus
T2 sequence (residues 1-94, tag not shown): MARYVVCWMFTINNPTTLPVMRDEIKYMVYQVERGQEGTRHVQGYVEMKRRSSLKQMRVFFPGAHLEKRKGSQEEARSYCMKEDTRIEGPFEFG
Protocol: as §1

[3] = test system: T3, Rep nickase domain of cabbage leaf curl virus
T3 sequence (residues 1-116, tag not shown): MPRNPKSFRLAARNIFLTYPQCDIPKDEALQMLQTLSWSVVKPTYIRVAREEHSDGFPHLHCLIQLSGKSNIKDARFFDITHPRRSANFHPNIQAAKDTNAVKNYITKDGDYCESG
Protocol: as §1

[4] = test system: T4, Rep nickase domain of chickpea chlorotic dwarf virus
T4 sequence (residues 1-124, tag not shown): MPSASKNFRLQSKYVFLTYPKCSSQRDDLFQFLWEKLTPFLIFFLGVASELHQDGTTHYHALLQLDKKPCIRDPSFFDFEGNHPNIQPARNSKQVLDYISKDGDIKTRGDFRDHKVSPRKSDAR
Protocol: as §1

[5] = test system: T5, Rep nickase domain of faba bean necrotic yellows virus
T5 sequence (residues 1-98, tag not shown): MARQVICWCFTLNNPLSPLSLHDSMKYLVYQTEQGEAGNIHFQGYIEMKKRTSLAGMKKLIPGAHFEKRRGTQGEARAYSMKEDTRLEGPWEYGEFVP
Protocol: as §1

[6] = test system: T6, Rep nickase domain of maize striate mosaic virus
T6 sequence (residues 1-117, tag not shown): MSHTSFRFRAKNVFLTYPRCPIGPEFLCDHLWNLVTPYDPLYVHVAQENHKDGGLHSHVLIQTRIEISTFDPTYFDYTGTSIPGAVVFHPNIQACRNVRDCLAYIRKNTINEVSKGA
Protocol: as §1

[7] = test system: T7, Rep nickase domain of porcine circovirus 2
T7 sequence (residues 2-116, tag not shown): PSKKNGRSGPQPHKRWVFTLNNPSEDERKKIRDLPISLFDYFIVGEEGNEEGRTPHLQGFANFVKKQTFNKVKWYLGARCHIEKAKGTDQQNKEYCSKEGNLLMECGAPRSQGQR
Protocol: as §1

[8] = test system: T8, Rep nickase domain of tomato yellow leaf curl virus
T8 sequence (residues 1-136, tag not shown): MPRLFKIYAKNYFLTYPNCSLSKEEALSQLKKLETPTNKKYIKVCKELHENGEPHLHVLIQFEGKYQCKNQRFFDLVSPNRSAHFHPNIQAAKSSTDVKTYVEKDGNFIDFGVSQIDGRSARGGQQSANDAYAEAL
Protocol: as §1

[9] = test system: T9, Rep nickase domain of wheat dwarf virus
T9 sequence (residues 1-137, tag not shown): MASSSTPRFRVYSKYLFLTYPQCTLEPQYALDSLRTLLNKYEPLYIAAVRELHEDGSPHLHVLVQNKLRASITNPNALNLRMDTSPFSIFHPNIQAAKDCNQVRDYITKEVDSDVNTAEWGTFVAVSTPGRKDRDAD
Protocol: as §1

Sequence	uncleaved DNA left (log2) [1]	uncleaved DNA left (log2) [2]	uncleaved DNA left (log2) [3]	uncleaved DNA left (log2) [4]	uncleaved DNA left (log2) [5]	uncleaved DNA left (log2) [6]	uncleaved DNA left (log2) [7]	uncleaved DNA left (log2) [8]	uncleaved DNA left (log2) [9]
TGCGGCG	-0.0324	-0.131	-0.864	-0.625	-0.0556	-0.849	-0.00701	-0.0661	-0.265
GTGGCAG	0.116	0.116	0.77	1.75	-0.0131	2.03	0.124	-0.0465	0.103
ATCCGAT	-0.128	-0.0575	0.181	0.6	-0.0446	0.457	-0.0217	-0.0216	0.0523
TTTCTAG	0.115	0.0863	-0.565	-0.606	0.22	-1.1	0.207	0.115	0.116
CACGCGG	-0.0141	0.00435	0.301	1.2	0.0165	1.18	0.0377	-0.0385	0.0458
TCCGATT	0.0875	-0.0753	0.259	-0.974	0.221	0.196	-0.166	0.0733	0.0626
ATGAACC	0.0633	0.0131	0.143	0.172	0.0205	-0.0151	-0.0937	0.0849	0.0661
AGTATAT	0.146	0.108	0.298	-0.0799	0.125	0.294	-3.25	0.0522	0.0604
CTATATG	0.116	-0.0206	-0.532	-0.559	-0.0218	-1.17	0.0818	-0.0133	0.0335
GTGTAAG	0.215	0.163	-0.13	-0.154	0.0828	-0.415	0.272	0.145	0.0904
TACTGGG	0.122	0.0924	-0.386	-0.631	0.134	-0.859	0.226	0.0864	0.0908
TGCTCTG	-0.0446	-0.059	-0.0397	0.417	0.102	1.08	0.0752	-0.0671	0.0172
TCAGGGC	0.0611	0.048	0.16	0.433	0.0785	-0.151	0.011	0.0346	-0.000756
GTATAAT	-0.401	0.0982	0.326	0.706	0.0992	1.72	-0.996	0.167	0.0791
AATGAAG	0.0705	-0.074	-0.792	0.123	-0.0599	-0.869	0.196	0.0219	-0.0889
TAGAAAT	0.0761	-0.309	-0.187	-1.18	-0.228	0.356	-3.15	0.111	0.131
AGAAGAT	0.0154	0.0534	0.238	1.34	0.00159	1.63	0.216	-0.109	-0.0077
GTCTTCA	0.0222	-0.0186	0.268	0.844	0.0158	1.72	0.0332	-0.0529	-0.00313
CACTCTC	-0.0767	-0.329	-0.107	-0.637	0.0394	-0.552	-2.7	0.101	0.0831
GTTACCT	0.0781	0.084	0.291	0.424	0.0485	1.63	-0.00336	0.0262	0.106
TTTATAG	0.126	0.0501	-0.644	-0.7	0.168	-1.09	0.16	0.0258	-0.0532
TATATTT	-2.71	-3.41	-2.3	-2.83	-0.0392	-0.369	-3.42	0.0399	-0.512
AAAAAAC	0.0729	0.0872	0.0324	-0.47	-0.0137	-0.627	0.171	-0.00208	0.121
AAGGACC	0.0321	0.0336	0.152	0.794	-0.083	0.424	0.0748	-0.0394	0.0778
GGTCCTA	0.00835	0.144	0.422	1.1	-0.00913	1.88	0.0392	0.125	0.164
CCCTCAA	-0.116	-0.0645	-0.0294	-0.331	-0.0887	-0.563	-0.0223	-0.181	-0.0427
GGACCAG	-0.063	0.0891	0.711	1.65	0.0125	1.8	0.116	-0.143	0.11
AGGTCAT	0.0493	0.0717	0.808	1.82	-0.0394	2.09	0.0977	0.0822	0.159
GCTTCTA	-0.0354	0.108	0.108	0.0863	0.0892	0.555	-0.074	0.0633	0.0528
TTGTCCA	0.0685	0.0714	0.243	-0.356	0.0247	0.0752	-0.205	0.117	0.0581
